According to PubChem BioAssay AID1508624 (National Center for Advancing Translational Sciences (NCATS), 2021):
Hit rate of the full screen: of about 48,000 compounds, about 120 (0.25%) were called active. Roughly 4% stayed inconclusive and do not appear here. Calls come from the whole dose curve; as a rule, active = well fitted activation curve with a large enough effect; inconclusive = small, poorly fitted or top-dose-only effect, or another doubt; inactive = no such curve, though single readings can be large or run the other way. The list shows a part of the results.

Assay: Primary qHTS for Identification of Small Molecule Activators of Huntingtin-Antisense Promoter Activity; note: nearly all actives have a fitted effect of over 55% in size
Conditions: HEK293 HTT-AS promoter firefly luciferase reporter (activity 0% = vehicle and -100% = no light), 24 h; series mostly up to 57.5 µM; activity change, positive = activation: at the top concentration
From the text: Assay Provider: Russell L. Margolis M.D.
Department Neurology, Johns Hopkins University School of Medicine, Baltimore, MD
Huntington's Disease (HD) is a neurodegenerative disorder caused by a CAG repeat expansion in exon 1 of huntingtin (HTT). While there are currently no disease-modifying treatments for HD, recent efforts have focused on development of nucleotide-based therapeutics to lower HTT expression. As an alternative to siRNA or oligonucleotide methods, we hypothesized that suppression of HTT expression might be accomplished by small molecules that either (1) directly decrease HTT expression by suppressing HTT promoter activity or (2) indirectly decrease HTT expression by increasing the promoter activity of HTT-AS, the gene antisense to HTT that appears to inhibit expression of HTT.
We developed and employed a high throughput screen for modifiers of HTT and HTT-AS promoter activity using luminescent reporter HEK293 cells; of the 52,041 compounds tested, we identified 898 replicable hits. We used a rigorous stepwise approach to assess compound toxicity and the capacity of the compounds to specifically lower huntingtin protein in 5 different cell lines, including HEK293 cells, HD lymphoblastoid cells, mouse primary neurons, HD iPSCs differentiated into cortical-like neurons, and HD hESCs. We found no compounds which were able to lower huntingtin without lowering cell viability in all assays, though the potential efficacy of a few compounds at non-toxic doses could not be excluded.
SEQUENCE No. (1, 2, 3, etc.); […] (e.g., Cells, Incubation, Reagent, etc.); VALUE and DESCRIPTION.
1; Reagent; 4 uL; 2,500 Hek293 luciferase reporter cells per wells
3; Compound; 23 nL; Control inhibitor / compound library
5; Reagent; 2.5 uL; Firefly Luc reagent; Dual-Glo Luciferase Reporter Assay System (Promega)
6; Time; 10 min; room temperature incubation
7; Detection; Luminescence; FLuc
NOTES (numbers refer to sequence above)
1; High-throughput screening, measuring luminescence from a Hek293 luciferase reporter, was performed in 1,536 well white-walled tissue-culture treated plates. 2,500 cells were plated in 4 µL of Opti-MEM per well using a Multidrop Combi Reagent Dispenser (ThermoFisher).
2; Assay plates were cultured for 24 hours.
3; Control inhibitor (PTC124; final concentration of 50 uM) and compound library (at final concentrations of 460 nM - 57.5 uM) were added to the assay plate using the Kalypsis Pintool Robotic System equipped with 1536 pinheads.
4; Cells were then incubated for 24 hours at 37 degrees C prior to luminescence measurements.
5; In all cases, luminescence was measured using the Dual-Glo Luciferase Reporter Assay System (Promega) following the manufacturer's instructions.
6; Room temperature incubation.
7; Luminescence signal was obtained using the PerkinElmer ViewLux plate reader. Results were normalized to vehicle control (0% activity) and zero RLU (-100% activity).

Activity change, positive = activation, inactive:
CCOc1ccc(-c2cc3nc(C4CCN(C(=O)OC(C)(C)C)CC4)c(C(=O)Nc4ccc(C)c(F)c4)cn3n2)cc1 -8.58%
CC(C)CCNC(=O)c1cn(C)c2ccc(S(=O)(=O)N3CCCC3)cc2c1=O 4.28%
Cc1ccccc1OCc1cc(=O)n2c(-c3ccccc3)csc2n1 -3.03%
CCn1cc(C(=O)N2CCN(c3cc(Cl)ccc3C)CC2)c(=O)c2cc(S(=O)(=O)N3CCOCC3)ccc21 -21.5%
CCC(=O)N1CCc2cc(Br)cc(S(=O)(=O)N3CCC(C(=O)N(CC)CC)CC3)c21 -4.9%
Cc1cccc(NC(=O)CSC2=Nc3ccccc3C3=NC(CCC(=O)NCc4ccc(F)cc4)C(=O)N23)c1 (stereo not given) -13.9%
O=C(NCCc1ccc(Cl)cc1)c1ccc(Cn2c(=O)[nH]c3ccccc3c2=O)cc1 -11.9%
CC(=O)c1cccc(Nc2ncnc3c2cnn3C)c1 -0.227%
CCOc1ccccc1NC(=O)Cc1csc(COc2cccc(C)c2)n1 -17.6%
Cc1ccc(-n2c3c(c(=O)[nH]c2=O)C(NS(=O)(=O)c2ccc(C)cc2)(C(F)(F)F)C(=O)N3)cc1 (stereo not given) -5.24%
CCOc1ccc(CN2C(=O)c3ccccc3Sc3ccc(C(=O)NCCc4ccccc4)cc32)cc1 -5.64%
COc1ccc2[nH]cc(CCNC(=O)Nc3cccc(F)c3)c2c1 -17.3%
CC1CCN(S(=O)(=O)c2ccc(C(=O)Nc3nc4ccc(F)cc4s3)cc2)CC1 -23.8%
COC(=O)c1c(NC(=O)COc2c(C)cccc2C)sc2c1CCCC2 -29.9%
CCOc1ccccc1NC(=O)c1cc2cc(C)ccc2n1C -18.2%
COc1ccccc1CNC(=O)C1CCCN(C(=O)c2cnn(-c3ccc(F)cc3)c2-n2cccc2)C1 (stereo not given) -11.9%
Cc1ccc(NC(=O)C(Cc2ccccc2)n2cccc2)cc1 (stereo not given) -9.86%
COCCCn1c(=O)c2sccc2n2c(CCCC(=O)Nc3cc(C)cc(C)c3)nnc12 -1.36%
COc1ccc(CNC(=O)Cn2ncc3c4ccccc4n(Cc4cccc(Cl)c4)c3c2=O)cc1 -11%
OCCN1CCN(CCCN2c3ccccc3Sc3ccc(C(F)(F)F)cc32)CC1
CC(C)(Oc1ccc(CCNC(=O)c2ccc(Cl)cc2)cc1)C(=O)O 2.36%
COc1ccc(OC)c(NCc2cccn2-c2nnc(N3CCCCC3)s2)c1 -34%
Cc1ccc(C)c(S(=O)(=O)c2cn(C)c3cc(N4CCCCC4C)c(F)cc3c2=O)c1 (stereo not given) -13.4%
COc1ccc(C)cc1NC(=O)c1ccc2c(=O)n3c(nc2c1)CCCCC3 -14.1%
c1ccc(CC2=NCCN2)cc1 32.6%
Cc1cccc(-c2nc3c4ccccc4nc(N4CCN(c5ccccc5F)CC4)n3n2)c1 -1.53%
Cc1ccc(CNC(=O)NCc2noc3ccc(C)cc23)cc1 -8.68%
COc1ccc(C(=O)NCCn2cc(SCC(=O)Nc3ccc(C)cc3)c3ccccc32)cc1 -27.7%
Cn1c(=O)c2c(-c3ccc(Cl)cc3)n(Cc3ccc(Cl)cc3)cc2n(C)c1=O -15.4%
CCC1CCCCN1CCCNC(=O)c1[nH]c2ccccc2c1Sc1ccc(Cl)cc1 (stereo not given) -8.5%
CCOc1ccc(C(c2c(O)cc(C)n(CCOC)c2=O)N2CCN(c3ccccc3)CC2)cc1 (stereo not given) -10.5%
COc1cccc(CNC(=O)C(CC(C)C)NS(=O)(=O)c2ccc3c(c2)oc(=O)n3C)c1 (stereo not given) -21.9%
Cc1c2cnn(CC(=O)N3CCCCC3)c(=O)c2c(C)n1Cc1ccc(F)cc1 0.191%
COc1ccc(-c2noc(N3CCC(C(=O)Nc4ccc(F)cc4Cl)CC3)n2)cc1 -85.8%
CCN(C(=O)CCS(=O)(=O)c1cc2[nH]c(=O)c(=O)[nH]c2cc1C)c1ccccc1 -7.74%
Cc1ccc2c(c1)C(=O)OC(C(=O)Nc1ncc(Cc3ccc(C(C)C)cc3)s1)C2 (stereo not given) 0.0539%
O=C(NCCc1ccc(F)cc1)C(=O)NCC(c1cccs1)S(=O)(=O)c1ccc(F)cc1 (stereo not given) -42.8%
Cc1ccc2sc(N3CCN(C(=O)CCS(=O)(=O)c4ccc(Cl)cc4)CC3)nc2c1C -0.215%
Cc1ccc(-c2cn3nc(N4CCCC(C(=O)Nc5ccc(F)cc5)C4)sc3n2)cc1 (stereo not given) -44%
CCCN(CCC)C(=O)Cn1c(=O)n(-c2cccc(OC)c2)c(=O)c2c(C)c(C(=O)N(C)C)sc21 7.28%
Cc1ccc(N(CC(=O)N2CCN(c3ccc(Cl)cc3)CC2)S(=O)(=O)c2c(C)nn(C)c2C)cc1 -9.7%
CCC(Sc1nc2ncccc2[nH]1)C(=O)Nc1cccc(OC)c1 (stereo not given) -11.4%
COC(=O)c1c(NC(=O)CCCOc2ccc(C(C)(C)C)cc2)sc2c1C(C(=O)OC)CC2 (stereo not given) -43.7%
COc1ccc(N2CCN(C(=O)CCn3c(=O)[nH]c4cc(OC)c(OC)cc4c3=O)CC2)cc1 1.61%
CCc1ccc(CNC(=O)C(C)n2ccc3cc(S(=O)(=O)N4CCCCCC4)ccc32)cc1 (stereo not given) 0%
Cc1cccc(NC(=O)CCS(=O)(=O)c2cccc3nsnc23)c1C -8.85%
COc1cccc(C(=O)NCCc2csc(-c3ccc(Cl)cc3)n2)c1 -25.6%
Cc1ccc(NC(=O)C2CCN(S(=O)(=O)c3ccc4[nH]c5c(c4c3)CCCCC5)CC2)cc1 -25.9%
CCOC(=O)CSC1=Nc2ccccc2C2=NC(CCC(=O)NCc3ccc(F)cc3)C(=O)N12 (stereo not given) 8.05%
O=C(NCc1cccc(F)c1)C1CCCN(C(=O)N2CCOc3ccccc32)C1 (stereo not given) -10.1%
CC1CN(C(=O)N2CCC(C(=O)NCc3cccs3)CC2)c2cc(Cl)ccc2O1 (stereo not given) -19.4%
COC(=O)c1cc2sc(Cl)cc2n1Cc1c(C)cc(C)cc1C 11%
COc1ccc(-c2c(C)c3ccc(O)c(CN4CCOCC4)c3oc2=O)cc1 -0.803%
CCn1c2ccccc2c2cc(NC(=O)COc3ccc(C)cc3C)ccc21 6.47%
COc1ccc(OC)c(CNC(=O)c2ccc(C)c(NC(=O)c3nsc4ccccc34)c2)c1 22.3%
CCCCNC(=O)C1CCN(S(=O)(=O)CCC)CC1 -15.6%
Cc1ccc(Cn2c(CNS(=O)(=O)c3cccc([N+](=O)[O-])c3)nc3cccnc32)cc1 -24.6%
CCOc1ccc(OCC)c(NS(=O)(=O)c2cc(-c3cnc(C)o3)ccc2OC)c1 -8.97%
COc1ccc(-c2cc(C)no2)cc1S(=O)(=O)Nc1c(C)cc(C)cc1C -27.9%
COc1ccc(OC)c(NC(=O)c2c(N3CCCC3=O)c3cc(OC)ccc3n2C)c1 0.319%
